Experimental data: PubChem BioAssay (NCATS)
Inconclusive means that the source gave no clear call. Such entries were picked first, then a sample of the others. Potencies of inconclusive entries are doubtful fits and often do not repeat. Activity calls are given as the source filed them. Calls follow the shape of the dose curve; as a rule, active = well fitted curve in the direction sought with a large enough effect; inconclusive = small, poorly fitted or top-dose-only effect, or another doubt; inactive = no such curve, though single readings can be large; an effect the other way counts as inactive or inconclusive.

Assays:
[1] = system: C33A; assay: Primary qHTS to identify gynecologic anti-cancer compounds using libraries of approved drugs and bioactive compounds (AID 1345084); settings: Gynecologic cancer cell panel viability, ATPlite luminescence, 48 h; series mostly up to 57.5 µM; also: nearly all actives have a fitted effect of over 55% in size
How it was run: (§1)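 Five-concentration response, 48 h; readout is ATP-driven luciferase luminescence.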

[2] = system: CAOV3; assay: as above; settings: Gynecologic cancer cell panel viability, ATPlite luminescence, 48 h; series mostly up to 57.5 µM
How it was run: as §1

[3] = system: CASKI; assay: as above; settings: Gynecologic cancer cell panel viability, ATPlite luminescence, 48 h; series mostly up to 57.5 µM
How it was run: as §1

[4] = system: Es-2; assay: as above; settings: Gynecologic cancer cell panel viability, ATPlite luminescence, 48 h; series mostly up to 57.5 µM
How it was run: as §1

[5] = system: HeLa; assay: as above; settings: Gynecologic cancer cell panel viability, ATPlite luminescence, 48 h; series mostly up to 57.5 µM
How it was run: as §1

[6] = system: Hek293T; assay: as above; settings: Gynecologic cancer cell panel viability, ATPlite luminescence, 48 h, control line for the selectivity index; series mostly up to 57.5 µM
How it was run: as §1

[7] = system: JEG-3; assay: as above; settings: Gynecologic cancer cell panel viability, ATPlite luminescence, 48 h; series mostly up to 57.5 µM
How it was run: as §1

[8] = system: OV90; assay: as above; settings: Gynecologic cancer cell panel viability, ATPlite luminescence, 48 h; series mostly up to 57.5 µM
How it was run: as §1

[9] = system: W2; assay: qHTS profiling for inhibitors of Plasmodium falciparum proliferation (AID 504749); also: nearly all actives have a fitted effect of over 60% in size; settings: P. falciparum in erythrocytes, SYBR Green DNA, 72 h; series mostly up to 28.7 µM
How it was run: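 P. falciparum-infected erythrocytes (0.3% parasitemia, 2.5% hematocrit final) were exposed to compounds for 72 h at 37 C in 5% CO2, then lysed with SYBR Green buffer overnight at room temperature; parasite DNA fluorescence was normalized to artemisinin and DMSO controls.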
Potency is read from the fitted curve at half-maximal effect; tags tell the direction and shape of the fitted curve.

| Structure (SMILES) | Potency [1] | Potency [2] | Potency [3] | Potency [4] | Potency [5] | Potency [6] | Potency [7] | Potency [8] | Potency [9] |
| --- | --- | --- | --- | --- | --- | --- | --- | --- | --- |
| C/C(=C\c1csc(C)n1)[C@@H]1C[C@@H]2O[C@@H]2CCC[C@H](C)[C@H](O)[C@@H](C)C(=O)C(C)(C)[C@@H](O)CC(=O)O1 | inconclusive: 39800 nM [cytotoxic, partial curve, poor fit] | inconclusive: 6310 nM | inconclusive: 3980 nM | inconclusive: 100 nM | inconclusive: 112 nM | inconclusive: 5010 nM | – | – | – |
| O=C(N[C@@H]1N=C(c2ccccc2F)c2cccc3c2N(CC3)C1=O)c1cc2ccccc2[nH]1 | inconclusive: 10000 nM [cytotoxic, partial curve] | inconclusive: 12600 nM [cytotoxic, single point] | inconclusive: 12600 nM [cytotoxic, single point] | inconclusive: 12600 nM [cytotoxic, single point] | active: 12600 nM | inconclusive: 12600 nM [cytotoxic, single point] | inconclusive: 12600 nM [cytotoxic, single point] | inconclusive: 8910 nM [cytotoxic, single point] | – |
| CN1CCCCC1Cn1cc(C(=O)c2cc([N+](=O)[O-])ccc2I)c2ccccc21 (centres undefined) | inactive | – | – | – | – | – | – | – | – |
| CC[C@@]1(O)C(=O)OCc2c1cc1n(c2=O)Cc2cc3c(OC)cccc3nc2-1 | active: 631 nM | inconclusive: 316 nM [cytotoxic, full curve, poor fit] | inconclusive: 224 nM [cytotoxic, full curve, poor fit] | inconclusive: 251 nM [cytotoxic, full curve, poor fit] | inconclusive: 1260 nM [cytotoxic, full curve, poor fit] | active: 1580 nM | inconclusive: 282 nM [cytotoxic, full curve, poor fit] | active: 1120 nM | – |
| COC1CC(O[C@H]2CC[C@]3(C=O)C4CC[C@]5(C)[C@@H](C6=CC(=O)OC6)CC[C@]5(O)[C@@H]4CC[C@@H]3C2)OC(C)C1O[C@@H]1O[C@H](CO)[C@@H](O[C@@H]2O[C@H](CO)[C@@H](O)[C@H](O)[C@H]2O)[C@H](O)[C@H]1O (some centres undefined) | active: 178 nM | inconclusive: 631 nM [cytotoxic, full curve, poor fit] | inconclusive: 891 nM [cytotoxic, full curve, poor fit] | active: 398 nM | active: 398 nM | active: 447 nM | inconclusive: 708 nM [cytotoxic, partial curve, poor fit] | active: 1580 nM | – |
| C[C@]12CC[C@H](O)C[C@H]1CC[C@@H]1[C@@H]2[C@H](O)C[C@]2(C)[C@@H](c3ccc(=O)oc3)CC[C@]12O | inconclusive: 22.4 nM | active: 100 nM | active: 501 nM | active: 100 nM | active: 112 nM | inconclusive: 39.8 nM | – | active: 355 nM | – |
| CS(=O)(=O)c1ccc(C(=O)C2C(=O)CCCC2=O)c([N+](=O)[O-])c1 | inactive | – | – | – | – | – | – | – | – |
| C[C@@H]1CCC/C=C/[C@H]2C[C@@H](O)C[C@@H]2[C@@H](O)/C=C/C(=O)O1 | active: 891 nM | active: 316 nM | active: 1260 nM | active: 501 nM | active: 501 nM | active: 1000 nM | active: 1000 nM | active: 316 nM | – |
| COc1cc2c(c(OC)c1OC)-c1ccc(SC)c(=O)cc1[C@@H](NC(C)=O)CC2 | inconclusive: 15800 nM | inconclusive: 1260 nM [cytotoxic, partial curve, poor fit] | inactive | inconclusive: 398 nM | inconclusive: 1410 nM | inconclusive: 35500 nM | inconclusive: 0.9 nM | inconclusive: 100 nM | – |
| Cc1ccccc1C1=CCN(C)CC1 | inconclusive: 3980 nM [cytotoxic, single point] | – | – | – | – | – | – | – | – |
| CC1=CC2OC3[C@H](O)C[C@@](C)([C@]34CO4)[C@@]2(CO)[C@H](O)C1=O (some centres undefined) | inconclusive: 10000 nM [cytotoxic, partial curve] | inconclusive: 14100 nM [cytotoxic, partial curve, poor fit] | inconclusive: 39800 nM [cytotoxic, single point] | active: 10000 nM | active: 25100 nM | inconclusive: 7080 nM [cytotoxic, full curve, poor fit] | – | inconclusive: 4470 nM [cytotoxic, partial curve] | – |
| C[C@]12CC[C@H](O)C[C@H]1CC[C@@H]1[C@@H]2[C@H](O)C(=O)[C@]2(C)[C@@H](c3ccc(=O)oc3)CC[C@]12O | inconclusive: 39.8 nM | inconclusive: 112 nM | active: 398 nM | active: 89.1 nM | inconclusive: 50.1 nM | inconclusive: 316 nM | inconclusive: 100 nM [cytotoxic, full curve, poor fit] | – | – |
| N#Cc1cn([C@@H]2O[C@H](CO)[C@H](O)[C@@H]2O)c2ncnc(N)c12 | inconclusive: 100 nM [cytotoxic, full curve, poor fit] | inconclusive: 5620 nM | active: 282 nM | inconclusive: 199 nM [cytotoxic, full curve, poor fit] | inconclusive: 158 nM [cytotoxic, full curve, poor fit] | inconclusive: 251 nM [cytotoxic, full curve, poor fit] | inconclusive: 5010 nM [cytotoxic, full curve, poor fit] | inconclusive: 631 nM [cytotoxic, full curve, poor fit] | – |
| C[C@]12CC[C@H](O[C@@H]3O[C@H](CO)[C@@H](O)[C@H](O)[C@H]3O)CC1=CC[C@@H]1C2CC[C@]2(C)[C@@H](C3=CC(=O)OC3)CC[C@]12O (some centres undefined) | inconclusive: 10000 nM [cytotoxic, partial curve, poor fit] | inconclusive: 12600 nM [cytotoxic, single point] | inconclusive: 2240 nM [rising, single point] | active: 10000 nM | inconclusive: 11200 nM [cytotoxic, single point] | inconclusive: 12600 nM [cytotoxic, single point] | – | – | – |
| CNc1ccc2oc(C[C@H]3O[C@@]4(CC[C@H]3C)O[C@H](C(C)C(=O)c3ccc[nH]3)[C@H](C)C[C@H]4C)nc2c1C(=O)O (some centres undefined) | active: 11200 nM | active: 22400 nM | inconclusive: 12600 nM [cytotoxic, partial curve] | active: 10000 nM | inconclusive: 10000 nM [cytotoxic, partial curve, poor fit] | active: 8910 nM | inconclusive: 11200 nM [cytotoxic, partial curve] | active: 12600 nM | – |
| CC1=C[C@H]2O[C@@H]3C[C@H]4OC(=O)/C=C/C=C/C(=O)OCC/C(C)=C/C(=O)OC[C@@]2(CC1)[C@]4(C)[C@]31CO1 | inconclusive: 31.6 nM | inconclusive: 31.6 nM | active: 112 nM | active: 25.1 nM | active: 89.1 nM | inconclusive: 0.0891 nM | active: 126 nM | inconclusive: 89.1 nM [cytotoxic, full curve, poor fit] | – |
| C=C(C)[C@H]1Cc2c(ccc3c2O[C@@H]2COc4cc(OC)c(OC)cc4[C@@H]2C3=O)O1 | active: 708 nM | inconclusive: 3980 nM [cytotoxic, full curve, poor fit] | active: 1260 nM | inconclusive: 2000 nM [cytotoxic, full curve, poor fit] | inconclusive: 2510 nM [cytotoxic, full curve, poor fit] | active: 891 nM | inconclusive: 2820 nM [cytotoxic, partial curve, poor fit] | inconclusive: 282 nM [cytotoxic, full curve, poor fit] | inconclusive: 6010 nM [inhibitor, partial curve] |
| CN(C)c1cc2c(cc1Sc1nc3c(N)nccc3n1CCNCC(C)(C)C)OCO2 | inconclusive: 1410 nM [cytotoxic, full curve, poor fit] | active: 1120 nM | inconclusive: 1780 nM [cytotoxic, full curve, poor fit] | inconclusive: 1410 nM [cytotoxic, full curve, poor fit] | inactive | active: 1260 nM | active: 11200 nM | inconclusive: 1580 nM [cytotoxic, full curve] | – |
| N#Cc1ccc(N2CCN(C(=O)COc3ccc4[nH]cc(CCN)c4c3)CC2)cc1 | inconclusive: 22400 nM [cytotoxic, partial curve, poor fit] | – | – | – | – | – | – | – | – |
| CO[C@H]1[C@H](O)[C@H](O[C@H]2CC[C@]3(C=O)C4CC[C@]5(C)[C@H](C6=CC(=O)OC6)CC[C@]5(O)C4CC[C@@H]3C2)O[C@@H](C)[C@@H]1O (some centres undefined) | active: 89.1 nM | active: 100 nM | active: 224 nM | active: 100 nM | active: 126 nM | active: 126 nM | inconclusive: 126 nM [cytotoxic, full curve, poor fit] | active: 282 nM | – |
| CC1=CC2/C=C(\C)CCC(O)C(O)/C=C/C(=O)C23C(=O)NC(CC(C)C)C3C1C (centres undefined) | inconclusive: 12600 nM [cytotoxic, partial curve, poor fit] | inconclusive: 17800 nM [cytotoxic, single point] | inconclusive: 17800 nM [cytotoxic, single point] | active: 10000 nM | inconclusive: 11200 nM [cytotoxic, single point] | active: 7940 nM | inconclusive: 11200 nM [cytotoxic, single point] | inconclusive: 12600 nM [cytotoxic, single point] | – |
